Experimental data as given in PMC4336329 (PLoS ONE, 2015).
Hit rate of the full screen: of about 310,000 compounds, about 14,000 (4.5%) showed an effect of 50% or more. The effect is printed as a negative number. Some of the results follow.

These compounds were tested against human ether-à-go-go-related gene (hERG) potassium channel (human, UniProt Q12809) (assay: primary screen, population patch clamp on CHO cells stably expressing hERG).
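Note: peak tail current of the secondary pulse compared with the same well before compound.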

Sequence of human ether-à-go-go-related gene (hERG) potassium channel (Q12809 whole entry, looked up): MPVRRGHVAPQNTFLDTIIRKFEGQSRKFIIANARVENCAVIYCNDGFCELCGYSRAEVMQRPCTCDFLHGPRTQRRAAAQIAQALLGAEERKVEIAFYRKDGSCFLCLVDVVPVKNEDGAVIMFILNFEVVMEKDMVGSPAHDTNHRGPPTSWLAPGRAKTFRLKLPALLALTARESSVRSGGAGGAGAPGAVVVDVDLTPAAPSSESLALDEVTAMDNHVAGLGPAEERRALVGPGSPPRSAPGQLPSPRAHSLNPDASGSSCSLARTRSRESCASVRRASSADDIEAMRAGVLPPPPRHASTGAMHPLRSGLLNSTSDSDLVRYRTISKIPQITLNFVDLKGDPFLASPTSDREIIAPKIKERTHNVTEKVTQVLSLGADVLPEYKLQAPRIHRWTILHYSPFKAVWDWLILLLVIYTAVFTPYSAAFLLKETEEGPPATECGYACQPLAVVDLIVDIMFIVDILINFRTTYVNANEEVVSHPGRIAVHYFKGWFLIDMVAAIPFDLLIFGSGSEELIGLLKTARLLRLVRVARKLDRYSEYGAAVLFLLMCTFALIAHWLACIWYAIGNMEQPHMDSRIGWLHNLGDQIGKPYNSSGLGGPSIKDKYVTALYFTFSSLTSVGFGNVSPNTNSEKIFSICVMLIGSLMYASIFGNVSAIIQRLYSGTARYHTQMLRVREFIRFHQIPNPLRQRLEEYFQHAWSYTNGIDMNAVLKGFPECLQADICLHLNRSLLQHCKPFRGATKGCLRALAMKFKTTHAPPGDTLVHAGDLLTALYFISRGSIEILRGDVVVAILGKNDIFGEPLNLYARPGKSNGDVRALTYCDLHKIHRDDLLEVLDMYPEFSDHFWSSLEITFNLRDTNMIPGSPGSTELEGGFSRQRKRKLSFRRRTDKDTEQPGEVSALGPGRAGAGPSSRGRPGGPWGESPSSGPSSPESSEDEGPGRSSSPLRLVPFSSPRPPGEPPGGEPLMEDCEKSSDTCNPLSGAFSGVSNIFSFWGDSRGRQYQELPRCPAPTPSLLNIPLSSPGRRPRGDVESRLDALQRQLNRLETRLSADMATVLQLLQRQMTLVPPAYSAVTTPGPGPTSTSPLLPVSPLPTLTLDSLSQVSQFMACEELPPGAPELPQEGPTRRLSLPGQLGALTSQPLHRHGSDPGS

Compared with `COc1ccc(N2CCN(C(=O)COC(=O)Cc3cccc(OC)c3)CC2)cc1`, `O=C(c1ccccc1)C1CCN(CC(=O)N2CCN(c3ccccc3)CC2)CC1` is higher in “hERG current change (%, negative = inhibition) at 10uM” value: -20% for the first, -14.9% for the second.

First: O=C(CC(=O)c1ccccc1O)c1cccc(F)c1
Second: O=C(CNC(=O)c1cccc(F)c1)N/N=C/c1cc(Br)ccc1OCc1ccccc1
The “hERG current change (%, negative = inhibition) at 10uM” value of the first is lower: -7.86% for the first, 0.915% for the second.

Going from `CCn1cc(CNCc2cn[nH]c2-c2cc3ccccc3o2)cn1` to `COc1ccc(-c2[nH]ncc2CN2CCC(OCc3ccccn3)CC2)c(F)c1`, the “hERG current change (%, negative = inhibition) at 10uM” value falls from -14.1% to -31.1%.

First: CCc1nc(SCC(=O)Nc2ccccc2OC)n[nH]1
Second: COc1ccccc1NC(=O)CSc1nc(=O)n(CCN(C)C)c2c1CCCC2
The “hERG current change (%, negative = inhibition) at 10uM” value of the first is higher: 17.3% for the first, -40.4% for the second.

Compared with `Nc1n[nH]c2cccc(Cl)c12`, `Cc1nn(-c2ccccc2Cl)c(Cl)c1/C=C(\C#N)C(N)=O` is lower in “hERG current change (%, negative = inhibition) at 10uM” value: 6.18% for the first, 5.3% for the second.

Going from `CC(C)CCC1=NN(C(=O)c2ccco2)C(O)(C(F)(F)F)C1` (centres unmarked) to `CC(=O)C1C(c2ccncc2)NC(=O)NC1(O)C(F)(F)F` (centres unmarked), the “hERG current change (%, negative = inhibition) at 10uM” value rises from 0.342% to 1.55%.

Going from `CC(C)CNC(=O)C(=O)NCc1ccccn1` to `COC(=O)NNC(=O)c1ccccc1OC`, the “hERG current change (%, negative = inhibition) at 10uM” value falls from 21.4% to 11.2%.

Compared with `O=C(O)/C=C\C(=O)O.OCCN1CCN(C2CCC(c3ccc(F)cc3)c3ccc(F)cc32)CC1` (centres unmarked), `O=C(O)c1cc(Cl)c2c(c1)[C@@H]1C=CC[C@@H]1[C@H](c1ccc(S(=O)(=O)N3CCOCC3)cc1)N2` is higher in “hERG current change (%, negative = inhibition) at 10uM” value: -44.5% for the first, -0.659% for the second.

Compared with `CC(=O)Nc1ccc(NC(=O)Cc2sc(-c3cccnc3)nc2-c2ccc(C)cc2)cc1`, `Cc1ccc(NC(=O)CN(C)C(=O)COc2ccc(C(=O)c3ccc(F)cc3)cc2)cc1` is higher in “hERG current change (%, negative = inhibition) at 10uM” value: -44.8% for the first, -7.66% for the second.

First: COc1ccc(/C(C)=N\NC(=O)c2ccc3c(c2)OCO3)cc1OC
Second: Cc1cc(C)n2ncc(C(=O)Nc3ccc4c(c3)OCO4)c2n1
The “hERG current change (%, negative = inhibition) at 10uM” value of the first is lower: -14.7% for the first, 19.6% for the second.

Going from `COC(=O)c1cc(S(=O)(=O)Nc2ccc(C)c(F)c2)c[nH]1` to `Cc1cc(S(=O)(=O)Nc2ccc(C(=O)NCc3cccnc3)cc2)ccc1F`, the “hERG current change (%, negative = inhibition) at 10uM” value falls from 9.98% to -12%.

First: Nc1cc(=O)[nH]c(SCC(=O)Nc2ccc([N+](=O)[O-])cc2)n1
Second: Cc1cc(C)nc(NS(=O)(=O)c2ccc(NC(=O)C3CC3)cc2)n1
The “hERG current change (%, negative = inhibition) at 10uM” value of the first is lower: 1.76% for the first, 24% for the second.

Going from `O=C(NCc1ccncc1)c1cc2ccccc2nc1Cl` to `Cc1cc(C)nc(NS(=O)(=O)c2ccc(NC(=O)c3cc(=O)c4ccccc4o3)cc2)n1`, the “hERG current change (%, negative = inhibition) at 10uM” value rises from -20% to 18.8%.

First: CCn1nc(C(=O)NNC(=O)COc2ccc(OC)cc2)c2ccccc2c1=O
Second: COc1ccc(/C=C2\SC(=S)N(CCC(=O)Nc3ccccc3C(=O)O)C2=O)cc1
The “hERG current change (%, negative = inhibition) at 10uM” value of the first is lower: -23.4% for the first, 7.79% for the second.

First: CC1=NN(c2ccccc2)C(=O)C1/C=C1/C(=O)NC(=O)N(c2cc(C)cc(C)c2)C1=O (centres unmarked)
Second: CN(NC1CC(=O)N(c2ccccc2)C1=O)c1ccccc1 (centres unmarked)
The “hERG current change (%, negative = inhibition) at 10uM” value of the first is higher: 4.91% for the first, 3.71% for the second.

First: CCOc1ccc(NC(=O)CC(NC(C)=O)c2ccccc2)cc1S(=O)(=O)N1CCCC1 (centres unmarked)
Second: CCN(CC(=O)NCc1cccs1)c1ccc(S(=O)(=O)N2CCCC2)cn1
The “hERG current change (%, negative = inhibition) at 10uM” value of the first is higher: 1.19% for the first, -27.3% for the second.

Compared with `Cc1cc(NC(=O)C2CC(=O)N(c3ccccc3)C2)no1` (centres unmarked), `Cc1noc2ncnc(Oc3ccccc3)c12` is lower in “hERG current change (%, negative = inhibition) at 10uM” value: 24.4% for the first, 7.32% for the second.

First: O/N=C/c1cc(Br)ccc1OCc1ccc(F)cc1
Second: COc1cccc(C(=O)NCC(C)(C)SCc2ccc(F)cc2)c1
The “hERG current change (%, negative = inhibition) at 10uM” value of the first is higher: 2.93% for the first, -28.2% for the second.

Compared with `Fc1ccc(CNC(=S)NCc2ccc(F)cc2)cc1`, `Cc1ccc(-c2ccc(=O)n(Cc3ccc(F)cc3)n2)cc1` is higher in “hERG current change (%, negative = inhibition) at 10uM” value: -18% for the first, 3.67% for the second.

Going from `COCCOC(=O)C1=C(C)NC(=O)NC1c1cccc(F)c1` (centres unmarked) to `CCOC(=O)c1c(O)c(O)c(C(=O)OCC)n1-c1ccccc1`, the “hERG current change (%, negative = inhibition) at 10uM” value falls from 10.8% to 7.92%.

Going from `Nc1ccc(C(=O)OCC(=O)N2CCOCC2)cc1[N+](=O)[O-]` to `N#Cc1ccc(C(=O)OCC(=O)N2CCCC2)cc1`, the “hERG current change (%, negative = inhibition) at 10uM” value rises from 9.29% to 29.2%.

Going from `CCOC(=O)N1CCC(NC(=O)CCc2nc(C3=CCN(C)CC3)no2)CC1` to `O=C(NCc1ccccc1)C1CCC(=O)N(CCN2CCOCC2)C1` (centres unmarked), the “hERG current change (%, negative = inhibition) at 10uM” value rises from -3.37% to 21.1%.

Compared with `CCOC(=O)CP(=O)(c1ccccc1)c1ccccc1`, `CCCn1c(CCC(=O)O)ccc1-c1ccccc1` is higher in “hERG current change (%, negative = inhibition) at 10uM” value: 5% for the first, 24.2% for the second.

First: O=C(CCS(=O)(=O)c1cccc2nonc12)Nc1cccc2c1CCCC2
Second: Cc1cccc(NS(=O)(=O)c2cccc(C(=O)N3CCC3)c2)c1
The “hERG current change (%, negative = inhibition) at 10uM” value of the first is lower: 4.5% for the first, 6.44% for the second.

Going from `CC(C(=O)Nc1c2c(cc3c1CCC3)CCC2)N1CCCC1.Cl.O` (centres unmarked) to `CC(C(=O)NCC1CCCCC1)N1CCN(S(=O)(=O)c2ccccc2F)CC1` (centres unmarked), the “hERG current change (%, negative = inhibition) at 10uM” value rises from -10.7% to -0.194%.

Going from `O=C(NNC(=O)c1ccccc1-n1cccc1)c1ccc(Cl)nc1` to `Cc1[nH]c2ccccc2c1C(=O)C(C)OC(=O)c1ccc(Cl)nc1` (centres unmarked), the “hERG current change (%, negative = inhibition) at 10uM” value falls from 14% to -12.9%.

First: CC1(C)Cc2c(sc(NC(=O)C(=O)NCC3CCCO3)c2C(N)=O)CO1 (centres unmarked)
Second: CNc1nc(N)c([N+](=O)[O-])c(NCC2CCCO2)n1 (centres unmarked)
The “hERG current change (%, negative = inhibition) at 10uM” value of the first is lower: 9.48% for the first, 11.3% for the second.

First: CCCCN(C)C(=O)Cc1c(OC)ccc2cc(Br)ccc12
Second: CCCNC(=O)c1onc(CSc2ccc(Cl)cc2)c1C(=O)NCCOC
The “hERG current change (%, negative = inhibition) at 10uM” value of the first is higher: -19.6% for the first, -19.7% for the second.

First: CC(C)NC(=S)Nc1c(N)[nH]c(=O)[nH]c1=O
Second: CC(C)Cc1nc2sc3c(=O)[nH]cnc3c2c2c1CCC2
The “hERG current change (%, negative = inhibition) at 10uM” value of the first is higher: 17% for the first, 2.32% for the second.

Going from `N#Cc1ccc(OCC(O)CN2CCN(c3ncc(C(F)(F)F)cc3Cl)CC2)cc1` (centres unmarked) to `CN1CCN(CC(=O)Nc2ccc(OC(F)(F)F)cc2)CC1.Cl`, the “hERG current change (%, negative = inhibition) at 10uM” value rises from -74.6% to -65.1%.

Compared with `CN(C)S(=O)(=O)c1ccc(N2CCCC2)c(C(=O)Nc2nc(-c3ccc(F)cc3)cs2)c1`, `Cc1ccc(SCC(=O)Nc2ccc(N3CCN(C)CC3)c(F)c2)cc1` is lower in “hERG current change (%, negative = inhibition) at 10uM” value: 7.27% for the first, -64.4% for the second.

First: Cc1ccc(Cn2nnc3c(=O)[nH]c(C4CCCN(C(=O)Nc5ccc(F)cc5F)C4)nc32)cc1 (centres unmarked)
Second: C=CCSc1nnc(-c2cc(C(C)(C)C)nn2Cc2ccc(F)cc2)n1C
The “hERG current change (%, negative = inhibition) at 10uM” value of the first is lower: -27.4% for the first, -3.17% for the second.

Compared with `COc1ccc(C(=O)NCCS(=O)(=O)NCc2cccnc2)cc1`, `CN(CC(=O)Nc1cccnc1)S(=O)(=O)c1cc(Cl)ccc1Cl` is lower in “hERG current change (%, negative = inhibition) at 10uM” value: 2.97% for the first, -29.4% for the second.

Going from `C=CCn1cnc2c(nnn2-c2cc(C)cc(C)c2)c1=O` to `COc1ccc(-n2cnc3sccc3c2=O)cc1`, the “hERG current change (%, negative = inhibition) at 10uM” value rises from -10.4% to 13.3%.

Compared with `CCOc1ccc(C2/C(=C(\O)c3ccc4c(c3)OCCO4)C(=O)C(=O)N2CCN2CCOCC2)cc1OCC` (centres unmarked), `CCn1cc(/C=C(\NC(=O)c2ccccc2F)C(=O)N2CCOCC2)c2ccccc21` is lower in “hERG current change (%, negative = inhibition) at 10uM” value: 2.29% for the first, -4.61% for the second.

Compared with `CN(C)S(=O)(=O)N1CCN(C(=O)c2ccccc2)CC1`, `Cc1ccc(NS(=O)(=O)c2ccc(C(=O)N3CC(C)CC(C)C3)cc2)cc1` (centres unmarked) is lower in “hERG current change (%, negative = inhibition) at 10uM” value: 8.25% for the first, -58.7% for the second.

First: CC1(C)CC(=O)C=C(Nc2ccc(C(=O)O)c(O)c2)C1
Second: CC(NC(=O)Nc1ccc2c(c1)OCO2)c1ccncc1 (centres unmarked)
The “hERG current change (%, negative = inhibition) at 10uM” value of the first is higher: 15.2% for the first, -12.4% for the second.

Going from `O=C(Nc1ccc(Cc2ccncc2)cc1)C1CCC(N2C(=O)C3CCCCC3C2=O)CC1` (centres unmarked) to `Nc1c(C(=O)N2CCCC2)sc2nc(-c3ccccc3)ccc12`, the “hERG current change (%, negative = inhibition) at 10uM” value falls from 10.8% to -70.7%.

First: CCN(CC)c1ccc2c(c1)CCCN2.Cl
Second: CCN(CC)C(=O)CN(C#N)c1nc(C)cc(C)n1
The “hERG current change (%, negative = inhibition) at 10uM” value of the first is lower: 7.87% for the first, 19.4% for the second.

Compared with `O=C(COc1ccccc1)N1CCN=C1SCc1cccc(F)c1`, `C(=C\c1ccccc1)/C=N/Nc1ccc2nncn2n1` is lower in “hERG current change (%, negative = inhibition) at 10uM” value: -0.69% for the first, -19.7% for the second.

Going from `Clc1ccc(Cn2nc(-c3ccccc3)nc2-c2ccccc2)cc1` to `CN1CC(c2ccccc2)C2(COc3ccccc3C2=O)C12C(=O)Nc1ccccc12` (centres unmarked), the “hERG current change (%, negative = inhibition) at 10uM” value rises from -8.99% to -3.09%.

Compared with `CN1CCN(c2ccc([N+](=O)[O-])c(Sc3nc4ccccc4[nH]3)c2)CC1`, `Nc1c(C(=O)C2CC2)sc2nc(-c3ccccc3)cc(C(F)(F)F)c12` is higher in “hERG current change (%, negative = inhibition) at 10uM” value: -19.7% for the first, 18.8% for the second.

First: Cc1nccc(-c2sc(-c3cccs3)nc2C)n1
Second: CCSc1nnc(NC(=O)CSc2nc3c(c(=O)n2-c2ccccc2OC)SCC3)s1
The “hERG current change (%, negative = inhibition) at 10uM” value of the first is higher: 0.0313% for the first, -26.2% for the second.

First: Cc1ccc(/C=C/C(=O)NC2=NCCS2)cc1
Second: Cc1nn(C)cc1/C=N/NC(=O)C(C)(C)Oc1ccc(Cl)cc1
The “hERG current change (%, negative = inhibition) at 10uM” value of the first is lower: 0.402% for the first, 0.613% for the second.

In the case of `CCOC(=O)C(NC(=O)CC)(Nc1ccc(S(=O)(=O)Nc2cc(C)on2)cc1)C(F)(F)F` (centres unmarked), the “hERG current change (%, negative = inhibition) at 10uM” value is reported as 23.6%.
